{"source": "PubChem BioAssay AID504832", "about": "(National Center for Advancing Translational Sciences (NCATS), 2011)", "note": "Hit rate of the full screen: of about 310,000 compounds, about 18,000 (5.8%) were called active. Inconclusive results, whose numbers are uncertain, are shown with a selection of clear calls. Calls follow the shape of the dose curve; as a rule, active = well fitted inhibition curve with a large enough effect; inconclusive = small, poorly fitted or top-dose-only effect, or another doubt; inactive = no such curve, though single readings can be large or run the other way. Potencies of inconclusive entries are left out as doubtful fits.", "data": [{"assay": "Primary qHTS for delayed death inhibitors of the malarial parasite plastid, 48 hour incubation; also: potency is read from the fitted curve at half-maximal effect; tags tell the direction and shape of the fitted curve", "settings": "P. falciparum luciferase growth in erythrocytes; series mostly up to 28.7 µM", "summary_of_the_method": "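Read-out is firefly luciferase luminescence from an integrated reporter in P. falciparum, so falling signal marks reduced parasite growth. Infected erythrocytes were at 2% hematocrit and 0.1% parasitemia (final) in Albumax-supplemented RPMI 1640.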", "values": [{"molecule": "CCN1CC(CCN2CCOCC2)C(c2ccccc2)(c2ccccc2)C1=O", "note": "(stereo unspecified)", "Potency": "inconclusive [inhibitor, partial curve]"}, {"molecule": "Nc1nc(CN2CCN(Cc3ccccc3)CC2)nc(Nc2ccccc2)n1", "Potency": "inconclusive [inhibitor, full curve, poor fit]"}, {"molecule": "COc1ccccc1CNC(=O)CCC(=O)N1Cc2cccc(OC)c2Oc2ncccc21", "Potency": "inactive"}, {"molecule": "Nc1nc(-c2ccco2)nn1C(=O)c1cccnc1", "Potency": "inconclusive [inhibitor, single point]"}, {"molecule": "Cn1ncc(Br)c1C(=O)Nc1ccc(Cl)cn1", "Potency": "inactive"}, {"molecule": "O=c1c2ccccc2nc(-c2ccco2)n1CCc1ccc(O)cc1", "Potency": "inconclusive [inhibitor, single point]"}, {"molecule": "CC(=O)CCc1ccc(Oc2nc(-c3cccnc3)nc3ccccc23)cc1", "Potency": "inconclusive [inhibitor, full curve, poor fit]"}, {"molecule": "OCCCn1c(-c2ccccc2)csc1=Nc1ccccc1", "Potency": "inconclusive [inhibitor, single point]"}, {"molecule": "CCn1c(SCC(=O)Nc2cc(C)on2)nc2sc3c(c2c1=O)CCCC3", "Potency": "inconclusive [inhibitor, single point]"}, {"molecule": "COc1ccc(OCCC(=O)OCC(=O)NCCc2ccccc2)cc1", "Potency": "inactive"}, {"molecule": "COC(=O)C1CCN(S(=O)(=O)Cc2ccccc2Cl)CC1", "Potency": "inactive"}, {"molecule": "Cc1ccc(-c2nc(C=Nc3ccc(O)cc3)c(O)o2)cc1", "Potency": "inconclusive [inhibitor, single point]"}, {"molecule": "COc1ccccc1N(CC(=O)N1CCC(C(N)=O)CC1)S(=O)(=O)c1ccccc1", "Potency": "inactive"}, {"molecule": "COc1ccc(/C=C2/C(=O)N=C(N)N2C)cc1OC", "Potency": "inactive"}, {"molecule": "CN(C)c1ccc(S(=O)(=O)NCC(=O)N2CCN(c3ccccc3)CC2)cc1[N+](=O)[O-]", "Potency": "inconclusive [inhibitor, single point]"}, {"molecule": "O=[N+]([O-])c1cccnc1N/N=C/c1ccccc1O", "Potency": "inactive"}, {"molecule": "CC(=O)Nc1nc2n(n1)C(c1ccc(F)cc1)C=C(c1ccccc1)N2", "note": "(stereo unspecified)", "Potency": "inconclusive [inhibitor, single point]"}, {"molecule": "COc1ccc(NC(=O)CSc2nc(N3CCCCC3)nc(N3CCCCC3)n2)cc1", "Potency": "inconclusive [inhibitor, single point]"}, {"molecule": "Cc1ccccc1NC(=O)c1ccc([N+](=O)[O-])o1", "Potency": "active: 10.4 µM"}, {"molecule": "O=C1c2ccccc2C(=O)N1CCCn1ccnc1", "Potency": "inactive"}, {"molecule": "CC(C)(C)c1ccc(OCCCn2ccnc2)cc1", "Potency": "inconclusive [inhibitor, single point]"}]}]}
